From the supplement of paper PMC10369915
The other results are listed elsewhere or left out. No stated cut-off is given here; in the data, active = 3.2 or more and inactive = the rest. Only a few entries rise above the background.

B1: PDK3_Y337_Y334S (peptide)
chain: RLSARYFQGDL
B2: PDHA1_Y243_YF (peptide)
chain: ASTDFYKRGDF
B3: PDK1_Y136 (peptide)
chain: DAKAIYDFTDT
B4: PDHA1_Y227 (peptide)
chain: CENNRYGMGTS
B5: PDPR_Y104 (peptide)
chain: QKMADYSNKLY
B6: PDGFRB_Y581_P584R_YF (peptide)
chain: GHEFIYVDRMQ
B7: PDHA1_Y301_R302H (peptide)
chain: DPGVSYHTREE
B8: PDGFRB_Y716 (peptide)
chain: PSAELYSNALP
B9: PDHA1_Y289_H292L_YF (peptide)
chain: LQTFRYHGLSM
B10: PDHA1_Y118_H113D (peptide)
chain: DLITAYRAHGF
B11: PDGFRB_Y581_P584R (peptide)
chain: GHEYIYVDRMQ
B12: PDHA1_Y301 (peptide)
chain: DPGVSYRTREE
B13: PDGFRB_Y589_P584R (peptide)
chain: RMQLPYDSTWE
B14: PDGFRB_Y716_N718Y_YF (peptide)
chain: PSAELYSFALP
B15: PDHA1_Y118 (peptide)
chain: HLITAYRAHGF
B16: PDK3_Y337 (peptide)
chain: RLYARYFQGDL
B17: PDHA1_Y289_YF (peptide)
chain: LQTFRYHGHSM
B18: PDPK1_Y9_V12M (peptide)
chain: TTSQLYDAMPI
B19: PDK1_Y136_A134T (peptide)
chain: DAKTIYDFTDT

Target: SHP2 C-SH2 domain E139D
Assay: enrichment score (SH2-bound / input frequency) (ratio); bacterial display of known human phosphotyrosine sites (pTyr-Var adds point mutants) read by sequencing; higher = stronger binding; tyrosines were phosphorylated by kinases first
Details: peptide library: pTyr-Var
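Further: displayed peptides selected on beads carrying the immobilized SH2 domain, with library peptides lacking any tyrosine serving as negative controls.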

Enrichment score, inactive:
B1 0.725
B2 0.47
B3 0.816
B4 0.779
B5 0.827
B6 0.946
B7 0.605
B8 0.535
B9 0.989
B10 0.724
B11 1.18
B12 0.451
B13 0.79
B14 0.851
B15 0.834
B16 0.675
B17 1.23
B18 0.778
B19 0.691

Target: SHP2 C-SH2 domain wild-type
Assay: as above
Details: peptide library: pTyr-Var

Enrichment score, inactive:
B1 0.851
B2 0.51
B3 0.654
B4 0.964
B5 0.695
B6 0.956
B7 0.442
B8 0.818
B9 0.787
B10 0.678
B11 0.993
B12 0.24
B13 0.679
B14 0.789
B15 0.71
B16 0.579
B17 1.04
B18 0.654
B19 0.859

Target: SHP2 N-SH2 domain L43F
Assay: as above
Details: peptide library: pTyr-Var

Enrichment score, inactive:
B1 0.795
B2 0.473
B3 1.59
B4 0.791
B5 0.686
B6 0.941
B7 0.389
B8 0.665
B9 0.722
B10 0.622
B11 1.1
B12 0.421
B13 1.16
B14 0.74
B15 0.565
B16 0.587
B17 1.09
B18 0.941
B19 0.75

Target: SHP2 N-SH2 domain T42A
Assay: as above
Details: peptide library: pTyr-Var

Enrichment score, inactive:
B1 0.587
B2 0.46
B3 0.658
B4 0.691
B5 0.669
B6 0.847
B7 0.51
B8 0.645
B9 0.736
B10 0.637
B11 0.852
B12 0.345
B13 0.766
B14 0.7
B15 0.538
B16 0.479
B17 0.85
B18 0.537
B19 0.651

Target: SHP2 N-SH2 domain T52S
Assay: as above
Details: peptide library: pTyr-Var

Enrichment score, inactive:
B1 0.571
B2 0.507
B3 0.656
B4 0.704
B5 0.823
B6 1.01
B7 0.698
B8 0.853
B9 0.828
B10 0.665
B11 1.06
B12 0.368
B13 0.681
B14 0.844
B15 0.572
B16 0.507
B17 1.27
B18 0.574
B19 0.598

Target: SHP2 N-SH2 domain wild-type
Assay: as above
Details: peptide library: pTyr-Var

Enrichment score, inactive:
B1 0.741
B2 0.527
B3 0.795
B4 1.09
B5 0.584
B6 0.721
B7 0.462
B8 0.953
B9 0.929
B10 0.71
B11 0.959
B12 0.514
B13 1.42
B14 0.702
B15 0.796
B16 0.517
B17 0.992
B18 0.917
B19 0.731
